# Reference: the supplement of paper PMC3724861
# The list shows a part of the results.
# System: T1, Caupolican (Caup) homeodomain DNA-binding domain
# T1 sequence: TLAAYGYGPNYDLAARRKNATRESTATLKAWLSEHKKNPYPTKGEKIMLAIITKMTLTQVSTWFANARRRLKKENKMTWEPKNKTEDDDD
# Assay: PBM E-score (8-mer, recovered from the published 9-mer minima) (E-score (dimensionless, -0.5 to 0.5)); Drosophila protein; higher = stronger relative binding preference, active = 0.31 or more
# Procedure, shortened: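 An enrichment score, with higher meaning stronger, expresses relative binding preference for each short DNA word. The protein used was Caup's homeodomain DNA-binding domain (residues 214-303), produced by in vitro transcription and translation and tested at 100 nM on custom-designed protein binding microarrays. The 8-mer values were recovered from published 9-mer scores, each equal to the lower of its two constituent 8-mer scores.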
row,Sequence,PBM E-score
1,ACATGTGG,inactive: 0.308
2,GCCTTAAA,inactive: -0.16
3,CTTTAGCA,inactive: -0.0832
4,CGGAAGAC,inactive: -0.0117
5,GAGCTGAC,inactive: -0.0129
6,CGCGGCCC,inactive: -0.267
7,TCATACGA,inactive: 0.104
8,CTTTCATC,inactive: -0.0828
9,CTCGAGAC,inactive: 0.0356
10,ATCAACTC,inactive: 0.0558
11,TGTACGAA,inactive: 0.263
12,CCGCGCGA,inactive: -0.136
13,GTTATATA,inactive: 0.225
14,AACCCAAG,inactive: 0.0182
15,CAGTAGGC,inactive: -0.0857
16,AGTACGAT,inactive: 0.0654
17,CGGGGCGA,inactive: -0.166
18,GAAGCAAA,inactive: 0.0215
19,AAGCGGCA,inactive: -0.0573
20,AAGTTGCA,≥ 0.123
21,GTTTCGTA,inactive: 0.119
22,CTTCCGAC,inactive: -0.0133
23,GGGGCCCC,inactive: -0.304
24,CCAGAAAC,inactive: -0.0438

row,Sequence,PBM E-score
1,AGTCTAAA,inactive: -0.00954
2,CTTATACC,inactive: 0.0127
3,ACGCCAGT,inactive: -0.153
4,ACCAACTC,inactive: -0.0119
5,CACGGCAC,inactive: -0.0334
6,GGGTCTTA,inactive: -0.101
7,ACAATCAG,inactive: 0.103
8,CACTTAAC,inactive: 0.121
9,GTACGTTA,inactive: 0.181
10,ACCTCCGT,inactive: -0.111
11,ATTATAAT,inactive: 0.156
12,CTTGTGGC,inactive: -0.0577
13,CCTTCGAA,inactive: -0.138
14,CGAGCGTC,inactive: -0.186
15,CCCGGCTC,inactive: -0.226
16,AGACTCTA,inactive: -0.00144
17,CAATCAAA,inactive: 0.14
18,AACAATCC,inactive: 0.151
19,CCCCTGTA,inactive: 0.113
20,CGGCTGTC,inactive: -0.0751
21,ACACTAAT,inactive: 0.13
22,TAGATTAA,inactive: 0.0851
23,GATCAGAC,inactive: -0.0261
24,AAGCCTCG,inactive: -0.166

row,Sequence,PBM E-score
1,CCGCCCGC,inactive: -0.315
2,ATTATTGC,inactive: 0.169
3,CCAAACAA,inactive: 0.16
4,ACACCATG,inactive: 0.168
5,GGAAACAA,inactive: 0.187
6,AGTTGTGA,inactive: 0.143
7,AATACGGC,inactive: 0.00511
8,ACGAATAC,inactive: 0.146
9,GAGATATA,inactive: 0.0512
10,ATTCCTTC,inactive: -0.0217
11,ATCCACAA,inactive: 0.0335
12,CACGTCGC,inactive: -0.0859
13,GCAGGAGC,inactive: -0.155
14,CACACTCG,inactive: 0.0334
15,CAGCTGAC,inactive: -0.0534
16,ACGGCAGT,inactive: -0.0873
17,AAGGCGAC,inactive: 0.00668
18,CGTTGTGC,inactive: 0.0498
19,CTATCGGC,inactive: -0.117
20,AGGAGGCG,inactive: -0.257
21,GAGGCACA,inactive: -0.116
22,CGCGGTTC,inactive: -0.123
23,TAAGCGTA,inactive: -0.0033
24,CCAGCGCA,inactive: -0.15

row,Sequence,PBM E-score
1,GTTACAAA,inactive: 0.285
2,AAGGTACC,inactive: -0.127
3,TACCCTCA,inactive: -0.0982
4,GCCCAGTA,inactive: -0.0895
5,AGGGGCTC,inactive: -0.299
6,ATGGTAGC,inactive: 0.00537
7,GACGAACC,inactive: -0.0687
8,ACTTGTAC,active: 0.407
9,CCTCTTCC,inactive: -0.208
10,CCTTCCAC,inactive: -0.15
11,GGGCATTA,inactive: -0.0527
12,CTTAGCTC,inactive: -0.183
13,AATTACCT,inactive: 0.0993
14,GCTCACTA,inactive: 0.0451
15,CTTAGACC,inactive: -0.0746
16,ACCGGCAC,≥ 0.0136
17,ACAGTGAG,inactive: 0.015
18,AGAGGGAG,inactive: -0.11
19,AAAATCTT,inactive: 0.0333
20,CAGTCTAA,inactive: 0.05
21,TCGGTAGA,inactive: 0.0297
22,GGCTAGCC,inactive: -0.273
23,ACGGGCTG,inactive: -0.163
24,AGTTAACG,inactive: 0.113

row,Sequence,PBM E-score
1,TGACCCCA,inactive: -0.138
2,GGGGGGCA,inactive: -0.344
3,GGCCGTTA,inactive: -0.0889
4,CAGGTAGA,inactive: 0.00516
5,CAGGAAGG,inactive: -0.2
6,CTTCCATA,inactive: -0.00772
7,AGATGATG,inactive: 0.0748
8,ACCCCAGT,≥ -0.124
9,GTCGTTTA,inactive: 0.148
10,ACTTCTTA,≥ 0.111
11,TACTGAGA,inactive: -0.0179
12,GTGCAGGA,inactive: -0.00228
13,AAGTTCCG,inactive: 0.00675
14,AAACGGGA,inactive: -0.0164
15,AAGCTCCT,inactive: -0.0876
16,AAAAATCG,inactive: -0.0795
17,CAGCTCTA,inactive: -0.0882
18,CTATGATA,inactive: 0.0827
19,GCCCCGAA,inactive: -0.185
20,TGCCGGCA,≥ -0.134
21,CATGGGGG,inactive: -0.157
22,GCATCCCA,inactive: -0.136
23,GGTTGGTA,inactive: 0.0654
24,AAAGCAGG,inactive: -0.0736

row,Sequence,PBM E-score
1,AGCATAGC,inactive: 0.0549
2,GGTCTCTA,inactive: -0.125
3,CGCTACCG,inactive: -0.0887
4,AGCGATCA,inactive: -0.0526
5,GGAGTAAC,inactive: -0.087
6,CAGCGCGA,inactive: -0.0786
7,GCGTGTGA,inactive: 0.0667
8,AACGACCT,inactive: -0.0586
9,CATTGCGG,inactive: -0.0397
10,CTGTGTGA,inactive: 0.0354
11,ATCGCAAG,inactive: -0.0386
12,CAGGGGCG,inactive: -0.11
13,ACCCGTAG,inactive: -0.147
14,ACAACCTC,inactive: 0.169
15,CGCTTATC,inactive: 0.00864
16,CCAGTAAC,inactive: -0.0237
17,AACGCCTC,inactive: -0.12
18,CTAAAGTA,inactive: -0.0211
19,GGTGTACA,active: 0.327
20,CTTCCCCA,inactive: -0.203
21,AGAATGGA,inactive: 0.0301
22,CCAATTTA,inactive: 0.143
